Experimental data from article PMC4336329 (PLoS ONE, 2015).
Among all 310,000 compounds or so, about 2,200 (0.71%) showed an effect of 50% or more. The effect is printed as a negative number. The list shows a part of the results.

molecular target: human ether-à-go-go-related gene (hERG) potassium channel (human, UniProt Q12809); test: primary screen, population patch clamp on CHO cells stably expressing hERG
Sequence (Q12809 whole entry, looked up): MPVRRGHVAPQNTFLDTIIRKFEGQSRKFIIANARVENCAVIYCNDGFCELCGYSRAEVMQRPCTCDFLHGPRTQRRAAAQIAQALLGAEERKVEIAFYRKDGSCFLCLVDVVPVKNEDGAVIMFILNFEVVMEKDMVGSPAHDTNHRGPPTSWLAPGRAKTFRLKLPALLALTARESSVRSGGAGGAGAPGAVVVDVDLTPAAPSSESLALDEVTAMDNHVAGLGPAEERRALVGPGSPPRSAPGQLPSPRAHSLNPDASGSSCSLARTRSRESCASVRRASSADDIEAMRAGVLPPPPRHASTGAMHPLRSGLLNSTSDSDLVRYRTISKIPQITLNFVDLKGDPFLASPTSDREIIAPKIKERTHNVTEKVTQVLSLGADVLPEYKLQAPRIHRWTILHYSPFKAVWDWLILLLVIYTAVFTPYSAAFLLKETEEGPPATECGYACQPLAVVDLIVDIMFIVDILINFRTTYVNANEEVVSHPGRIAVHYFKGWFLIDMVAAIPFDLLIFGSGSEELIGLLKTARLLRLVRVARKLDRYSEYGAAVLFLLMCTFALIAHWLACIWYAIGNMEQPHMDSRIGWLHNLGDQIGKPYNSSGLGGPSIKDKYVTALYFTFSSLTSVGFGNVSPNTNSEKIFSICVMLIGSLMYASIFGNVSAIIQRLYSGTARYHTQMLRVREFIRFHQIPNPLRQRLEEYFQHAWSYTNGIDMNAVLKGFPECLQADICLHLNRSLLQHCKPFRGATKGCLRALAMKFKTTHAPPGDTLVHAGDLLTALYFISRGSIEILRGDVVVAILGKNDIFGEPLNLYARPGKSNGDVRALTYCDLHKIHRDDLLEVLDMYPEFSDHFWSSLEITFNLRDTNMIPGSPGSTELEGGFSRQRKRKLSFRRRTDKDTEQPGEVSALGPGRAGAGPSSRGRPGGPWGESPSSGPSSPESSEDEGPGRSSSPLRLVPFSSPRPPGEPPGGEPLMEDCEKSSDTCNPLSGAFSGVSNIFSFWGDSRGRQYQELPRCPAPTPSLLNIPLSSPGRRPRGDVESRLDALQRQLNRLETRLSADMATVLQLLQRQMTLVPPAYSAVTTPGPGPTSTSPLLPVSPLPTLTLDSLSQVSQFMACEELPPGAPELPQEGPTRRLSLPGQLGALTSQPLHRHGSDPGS

Question: Which “hERG current change (%, negative = inhibition) at 1uM” value does the source give for `COc1ccc(C(=O)c2coc3ccc(O)cc23)cc1` here?
Answer: 12.1%

Question: How did the “hERG current change (%, negative = inhibition) at 1uM” value turn out when `CCN1C(=S)N[C@@H](c2cccs2)C(C(=O)OC)=C1C` was run?
Answer: 9.64%

Question: Which “hERG current change (%, negative = inhibition) at 1uM” value does the source give for `Cc1ccc(-n2c(SCC(=O)NCc3ccco3)nc3sc4c(c3c2=O)CC(C)(C)SC4)cc1` here?
Answer: -3.3%

Question: With `O=C(NCc1ccccc1)C(c1ccccc1)N(C(=O)c1csnn1)C1CC1` (stereo not drawn) as the molecule, how does the “hERG current change (%, negative = inhibition) at 1uM” value read?
Answer: 3.82%

Question: `CN1CCC(NC(=S)NC2CC2)CC1` was tested. Which “hERG current change (%, negative = inhibition) at 1uM” value did it give?
Answer: 9.75%

Question: With `CC1CC(C)CN(S(=O)(=O)N2CCC(C(=O)NCc3ccco3)CC2)C1` (stereo not drawn) as the molecule, how does the “hERG current change (%, negative = inhibition) at 1uM” value read?
Answer: 15.6%

Question: For `COc1ccc(-n2nc(C(=O)NCC(=O)N3CCCC3)c3ccccc3c2=O)cc1`, which “hERG current change (%, negative = inhibition) at 1uM” value is on record?
Answer: 13.2%

Question: `CCC(=O)N/C(=N/c1nc(C)cc(C)n1)Nc1cccc(OC)c1` was tested. Which “hERG current change (%, negative = inhibition) at 1uM” value did it give?
Answer: -3.38%

Question: How did the “hERG current change (%, negative = inhibition) at 1uM” value turn out when `COc1ccc(-n2c(=S)[nH]c3ncccc3c2=O)cc1` was run?
Answer: 8.86%

Question: `COc1ccc(C)cc1S(=O)(=O)N(CC(=O)Nc1cc([N+](=O)[O-])ccc1C)c1ccc(C)c(C)c1` was tested. Which “hERG current change (%, negative = inhibition) at 1uM” value did it give?
Answer: 13.4%

Question: How did the “hERG current change (%, negative = inhibition) at 1uM” value turn out when `CCSc1nnc(NC(=O)CSc2nccn2-c2cc(C)cc(C)c2)s1` was run?
Answer: 3.12%

Question: `NC(=O)c1ccc(NC(=O)C2CC2)cc1` was tested. Which “hERG current change (%, negative = inhibition) at 1uM” value did it give?
Answer: 10.3%

Question: `NC(=O)c1ccc(N2CCNC(=O)C2)c([N+](=O)[O-])c1` was tested. Which “hERG current change (%, negative = inhibition) at 1uM” value did it give?
Answer: 19.9%

Question: With `Cc1nnc(SCC(=O)Nc2ccc(-c3nc4ccccc4s3)cc2)s1` as the molecule, how does the “hERG current change (%, negative = inhibition) at 1uM” value read?
Answer: 14.5%

Question: For `COc1ccc(C)cc1NC(=O)c1cc2c(=O)n3ccccc3nc2n1C`, which “hERG current change (%, negative = inhibition) at 1uM” value is on record?
Answer: 7.55%

Question: With `NC(=O)NC(=O)CSc1nc(-c2ccccc2)c(-c2ccccc2)n1CC1CCCO1` (stereo not drawn) as the molecule, how does the “hERG current change (%, negative = inhibition) at 1uM” value read?
Answer: 2.8%

Question: Which “hERG current change (%, negative = inhibition) at 1uM” value does the source give for `CS(=O)(=O)N(CC(=O)Nc1ccccc1C(=O)NCCc1ccccc1)c1ccc2c(c1)OCCO2` here?
Answer: -2.01%

Question: How did the “hERG current change (%, negative = inhibition) at 1uM” value turn out when `CN(C)C(CNC(=O)C1CC(=O)N(Cc2ccccc2)C1)c1ccccc1` (stereo not drawn) was run?
Answer: 11.3%

Question: How did the “hERG current change (%, negative = inhibition) at 1uM” value turn out when `Cc1ccc(N(C(=O)CCl)C(C(=O)NC2CCCCC2)c2cccnc2)cc1C` (stereo not drawn) was run?
Answer: -6.24%

Question: `COc1ccc(NC(=O)C2CCCN(c3ncccn3)C2)cc1` (stereo not drawn) was tested. Which “hERG current change (%, negative = inhibition) at 1uM” value did it give?
Answer: 7.19%

Question: With `Cc1noc(C)c1NC(=O)NCCN1CCN(Cc2ccccc2)CC1` as the molecule, how does the “hERG current change (%, negative = inhibition) at 1uM” value read?
Answer: 11%

Question: Which “hERG current change (%, negative = inhibition) at 1uM” value does the source give for `O=C(NCc1cccnc1)C(=O)NCC(c1ccco1)N1CCOCC1` (stereo not drawn) here?
Answer: 10.8%

Question: Which “hERG current change (%, negative = inhibition) at 1uM” value does the source give for `Cc1cccc(C)c1N(CC(=O)Nc1cccc(N(C)S(C)(=O)=O)c1)S(C)(=O)=O` here?
Answer: 2.01%

Question: For `O=C(Nc1ccc(Br)cc1)c1cccc(NC(=O)C2C3CC4OC(=O)C2C4C3)c1` (stereo not drawn), which “hERG current change (%, negative = inhibition) at 1uM” value is on record?
Answer: 17.5%

Question: Which “hERG current change (%, negative = inhibition) at 1uM” value does the source give for `Cc1ccc(NC(=O)NCCN2CCCCC2)cc1` here?
Answer: 7.39%

Question: `NC(=O)C(c1ccc(Sc2ccccc2)nn1)c1ccc(Cl)cc1Cl` (stereo not drawn) was tested. Which “hERG current change (%, negative = inhibition) at 1uM” value did it give?
Answer: -0.811%

Question: How did the “hERG current change (%, negative = inhibition) at 1uM” value turn out when `O=C(c1ccc(OC(F)(F)F)cc1)c1ncc[nH]1` was run?
Answer: 12.6%

Question: Which “hERG current change (%, negative = inhibition) at 1uM” value does the source give for `CCc1nc2c(cnn2-c2ccc(Cl)cc2)c(=O)n1-c1ccc(OC)cc1` here?
Answer: -0.134%

Question: For `O=[N+]([O-])c1ccc(-n2cnc3ccccc32)c([N+](=O)[O-])c1`, which “hERG current change (%, negative = inhibition) at 1uM” value is on record?
Answer: 5.21%

Question: For `Cc1ccccc1NN=Nc1nc2c([nH]1)c(=O)n(C)c(=O)n2C`, which “hERG current change (%, negative = inhibition) at 1uM” value is on record?
Answer: 15.6%

Question: For `CN1CCN(NC(=O)c2ccc(Br)c(S(=O)(=O)N3CCOCC3)c2)CC1.Cl`, which “hERG current change (%, negative = inhibition) at 1uM” value is on record?
Answer: 4.4%

Question: With `COc1ccc(C)cc1NC(=O)NCCC1=CCCCC1` as the molecule, how does the “hERG current change (%, negative = inhibition) at 1uM” value read?
Answer: -5.48%

Question: For `CC(=O)Nc1ccc(S(=O)(=O)Nc2nc3c(s2)CCCC3)cc1`, which “hERG current change (%, negative = inhibition) at 1uM” value is on record?
Answer: 6.98%

Question: For `Cc1ccc(Cn2c(=O)oc3ccccc32)cc1`, which “hERG current change (%, negative = inhibition) at 1uM” value is on record?
Answer: 11.6%

Question: `O=C(CN1CSCC1=O)N1CCN(S(=O)(=O)c2ccc(Cl)cc2)CC1` was tested. Which “hERG current change (%, negative = inhibition) at 1uM” value did it give?
Answer: -1.13%

Question: Which “hERG current change (%, negative = inhibition) at 1uM” value does the source give for `CN1C(=O)C(C)(C)c2cc(S(=O)(=O)N3CCN(c4ccccc4)CC3)ccc21` here?
Answer: -2.71%

Question: `Cc1[nH]n(-c2ccccc2)c(=O)c1C=NCCc1ccccc1` was tested. Which “hERG current change (%, negative = inhibition) at 1uM” value did it give?
Answer: 11.8%

Question: With `Cc1ccc(-c2nc3ccccc3o2)cc1NC(=S)NC(=O)/C=C/c1ccco1` as the molecule, how does the “hERG current change (%, negative = inhibition) at 1uM” value read?
Answer: 16.7%

Question: For `O=C(NCc1ccccc1)C(=O)NCC(c1ccco1)N1CCN(c2ccccc2F)CC1` (stereo not drawn), which “hERG current change (%, negative = inhibition) at 1uM” value is on record?
Answer: 7.87%

Question: For `CCC(=O)Nc1nc2c(c(=O)[nH]1)CCCC2`, which “hERG current change (%, negative = inhibition) at 1uM” value is on record?
Answer: 11.9%

Question: How did the “hERG current change (%, negative = inhibition) at 1uM” value turn out when `COC(=O)c1ccccc1NC(=O)Cn1nnc(-c2ccc(OC)cc2)n1` was run?
Answer: 7.8%

Question: Which “hERG current change (%, negative = inhibition) at 1uM” value does the source give for `O=C(Nc1ccc(Cc2ccncc2)cc1)c1ccc(Cl)c([N+](=O)[O-])c1` here?
Answer: -9.04%

Question: How did the “hERG current change (%, negative = inhibition) at 1uM” value turn out when `CN1C/C(=C/c2cccs2)C(=O)/C(=C\c2cccs2)C1` was run?
Answer: 8.83%

Question: `COC(=O)c1ccccc1NC(=O)c1sc(N)nc1C` was tested. Which “hERG current change (%, negative = inhibition) at 1uM” value did it give?
Answer: 14.2%

Question: How did the “hERG current change (%, negative = inhibition) at 1uM” value turn out when `CCOC(=O)c1cc(=O)n2c(nc3ccccc32)[nH]1` was run?
Answer: 8.33%
